# Reference: the RNAGym collection of RNA variant scans (doi:10.1073/pnas.2313332121)
# This sample is rich in variants without activity.
# B1: TPR 5TU (parent)
# chain: GGAUCUUCUCGAUCUAACAAAAAAGACAAAUCUGCCACAAAGCUUGAGAGCAUCUUCGGAUGCAGAGGCGGCAGCCUUCGGUGGCGCGAUAGCGCCAACGUUCUCAACUAUGACACGCAAAACGCGUGCUCCGUUGAAUGGAGUUUAUCAUG
# Variants of: B1
# Experiment: polymerase ribozyme fitness, log enrichment relative to wild type (log ratio); higher = more active; in vitro selection for triplet polymerase activity
# In short: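 Both subunits of a heterodimeric triplet polymerase ribozyme were given their own mutant library, built by PCR and transcribed. Each library was annealed with a biotinylated primer, the partner subunit and triplets, incubated frozen at −7 °C, and its extended constructs gel-excised, captured on streptavidin beads and amplified by RT-PCR, all in one round done in triplicate. Fitness is the logarithm of genotype enrichment relative to wild-type enrichment, with replicates averaged by inverse-variance weighting. That logarithm is base 2, and Illumina-sequenced genotypes needed ≥10 input reads and ≥1 read per output.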
row,Variant,polymerase ribozyme fitness (log ratio)
1,A24U A26U G65U G88U G94U A98G G124U G143U,≤ -4.2
2,A24U A28C C54U C87U C95G G141C,≤ -4.2
3,A24U A28C G59A C85G A97G A121G G133A U139G A150G,≤ -4.2
4,A24U A28C G59C G86C A122U G133C,≤ -4.2
5,A24U A28U,≤ -4.2
6,A24U A29G A66C C95G C103A A142G,≤ -4.2
7,A24U A29G G68C G86U C105G G128A A137U U151C,≤ -4.2
8,A24U A30C G140A,-3.94
9,A24U A30U G68C U148C U151A,≤ -4.2
10,A24U A37C G67C G70C A138U U146A,≤ -4.2
11,A24U A37C U44G C76G G92C A113G,≤ -4.2
12,A24U A40C A49C C72G G83U C87G U139G U144C U151G,≤ -4.2
13,A24U A40G A52C A64G C87A A115C C125G,≤ -4.2
14,A24U A41C C63A A106U,≤ -4.2
15,A24U A41G U53G G124C C131U,-1.4
16,A24U A41U A91G A137C U139G,≤ -4.2
17,A24U A47C G71C A97U A98G C129G,≤ -4.2
18,A24U A47C G86A G94C C118U A137G,≤ -4.2
19,A24U A49C G65C U77C G83A G86A U135A,≤ -4.2
20,A24U A49G A52C U53A U55A C69A,≤ -4.2
21,A24U A52C A64C G70A C85U U111C,≤ -4.2
22,A24U A52G,0.771
23,A24U A52G A106G G143A,-1.81
24,A24U A52G C69G G70C G88A,≤ -4.2

row,Variant,polymerase ribozyme fitness (log ratio)
1,A24U A60U A64C C79A A119U,≤ -4.2
2,A24U A64G C72U U102G U151C,≤ -4.2
3,A24U C32A,-3.85
4,A24U C32G U135G G143A,-4.12
5,A24U C35G A89G U90C C105A A107G,≤ -4.2
6,A24U C35G C51G A60C G65A A91U C131G U134C U148C G152A,≤ -4.2
7,A24U C36G U56A C57A G71U A91C A106C A110G A138G,≤ -4.2
8,A24U C51U U53G C87A,≤ -4.2
9,A24U C69A A120G C131G,≤ -4.2
10,A24U C85U,-0.914
11,A24U C87U,-0.48
12,A24U C96A U145A,0.748
13,A24U G25C U56C G59A C75G C99A C103G U145G,≤ -4.2
14,A24U G34A C93G U102G,≤ -4.2
15,A24U G34A G92C A137G,-4.07
16,A24U G42A C87U A107C,≤ -4.2
17,A24U G42A C108U,1.52
18,A24U G42A G59A C96G,≤ -4.2
19,A24U G50A C108G C125A G141C,≤ -4.2
20,A24U G59U A91G C96A G117A C118G C132U G136A,≤ -4.2
21,A24U G86A,-1.43
22,A24U G86A G143C U148G,≤ -4.2
23,A24U G88A C95A A110G,≤ -4.2
24,A24U G94A A97U U151C,≤ -4.2

row,Variant,polymerase ribozyme fitness (log ratio)
1,A24U U31C G59C A66G A91U C114U,≤ -4.2
2,A24U U33G C85A C131G U146C,≤ -4.2
3,A24U U44A G70A G74C C93G,≤ -4.2
4,A24U U45G G74U G94C U102C G133U,≤ -4.2
5,A24U U53A G81A C116G A138G,≤ -4.2
6,A24U U53A U55A C95U C99A,≤ -4.2
7,A24U U55A C87U G92U,-3.1
8,A24U U56A U148A,-3.8
9,A24U U61A A89U C95G G133C,≤ -4.2
10,A24U U135C,-2.21
11,G25A A29C,≤ -4.2
12,G25A A29C C57A C75A U77C G80A G92A C93G,≤ -4.2
13,G25A A39G G74A U82G C87G U101C,≤ -4.2
14,G25A A39G U45A G71A C93U C95G A142C,≤ -4.2
15,G25A A41C U45G G59C U90A C93A,≤ -4.2
16,G25A A41U C93U C95U A98C,≤ -4.2
17,G25A A47U G58C G92A,≤ -4.2
18,G25A A89U C95G,-4.2
19,G25A C75U C93U C105U U109A,≤ -4.2
20,G25A C85U C93U C116A C125G U151G,≤ -4.2
21,G25A G34U C35G C85G,-4.2
22,G25A G42A G83U,≤ -4.2
23,G25A G46U C75A G80U C85U U90G G128C,≤ -4.2
24,G25A G48U U61G C96A A97G C132G,≤ -4.2

row,Variant,polymerase ribozyme fitness (log ratio)
1,G25A G80A G81A C95U C96A,≤ -4.2
2,G25A G81A G92U C103G,≤ -4.2
3,G25C A26U C87G A121U C129G U151A,≤ -4.2
4,G25C A28U G42A A60U C96U U145G,≤ -4.2
5,G25C A28U U61A G68C,≤ -4.2
6,G25C A29G A66C A107C,≤ -4.2
7,G25C A29G C85G G128C G141C,≤ -4.2
8,G25C A39C C76A C79U C87A A110U C114U,≤ -4.2
9,G25C A40C G67U C72G C85U A106G G133A A137C,≤ -4.2
10,G25C A40C U45G U90A,≤ -4.2
11,G25C A40U U55G C75A C85U C93G U134A A142U,≤ -4.2
12,G25C A47G G48A U53A C85G C114A,≤ -4.2
13,G25C A49C C51U U53G C54A C116U G141A G152U,≤ -4.2
14,G25C A52C G58C G59C A138U,≤ -4.2
15,G25C A52C G58C G62U U78G U82C C93A C125G,≤ -4.2
16,G25C A52C G88C A113U,≤ -4.2
17,G25C A52C U56A C85U G124C,≤ -4.2
18,G25C A52G C54U C63A C116U U135C,≤ -4.2
19,G25C A52G G83C,-3.42
20,G25C A52G U56A G58A G68C C96A,≤ -4.2
21,G25C A73G C87U G88U A110U G152C,≤ -4.2
22,G25C A150C,-3.47
23,G25C C27A A28G A40U C149A,≤ -4.2
24,G25C C27G A41C C51U A52G A64C C95A G141U,≤ -4.2

row,Variant,polymerase ribozyme fitness (log ratio)
1,G25C C27U G86A A107U C116U,≤ -4.2
2,G25C C32A G48A C79U G92A C93U A107C C132A A137C,≤ -4.2
3,G25C C32G A37C U56C G68C G74A C87U A142C,≤ -4.2
4,G25C C35G C96G A115C C132U,≤ -4.2
5,G25C C54A U78G C95U,≤ -4.2
6,G25C C54A U101G,≤ -4.2
7,G25C C76U C85U C103U A142C,≤ -4.2
8,G25C C85G C103U,≤ -4.2
9,G25C G42C A60G U61A G88A,≤ -4.2
10,G25C G46A U144C,-4.12
11,G25C G48C G84A G141U,≤ -4.2
12,G25C G48C G86U,≤ -4.2
13,G25C G50C U56A U77G G88C C95U,≤ -4.2
14,G25C G58U A73G C95U G141C,≤ -4.2
15,G25C G83C C87G A91G,≤ -4.2
16,G25C G83U,-2.85
17,G25C U44A C51A G74C U111G U127G G141C,≤ -4.2
18,G25C U44A G62C C79U G92U A147G,≤ -4.2
19,G25C U53A U61A C95G,-4.18
20,G25C U55A U61G C69U G88A U145A,≤ -4.2
21,G25U A29C C35A A40C,≤ -4.2
22,G25U A30G A47G C51U G80C A110C,≤ -4.2
23,G25U A39C C51U A106G C108U,≤ -4.2
24,G25U A39G A40U G50C A122U A137G G140C,≤ -4.2

row,Variant,polymerase ribozyme fitness (log ratio)
1,G25U A39U G50C G86A C93G,≤ -4.2
2,G25U A39U U53A C76G U145A,≤ -4.2
3,G25U A39U U55A U102C U109G C114U A120U A122G U144G,≤ -4.2
4,G25U A91U C95A C96A,≤ -4.2
5,G25U C27U C93U G143U,≤ -4.2
6,G25U C35U A49U G68A G81A U109G C118U G126C,≤ -4.2
7,G25U C35U C85A U130G,≤ -4.2
8,G25U C43G U78C G100A C108U A110G G141A,≤ -4.2
9,G25U C43U G67U C96G C99U U104G A119C,≤ -4.2
10,G25U C54A G80A,-4.05
11,G25U C54U G58C C76A G84C C105G,≤ -4.2
12,G25U C69G U146A,-4.05
13,G25U C85G A119U,≤ -4.2
14,G25U C85U A98G U148C,≤ -4.2
15,G25U C87U C93G A138U,≤ -4.2
16,G25U C105G G117A A138G,≤ -4.2
17,G25U G42C C85U C95U,≤ -4.2
18,G25U G84U,-3.64
19,G25U G86U A150C,≤ -4.2
20,G25U G88U,≤ -4.2
21,G25U U45A,≤ -4.2
22,G25U U56A G94U C95A G112U A122G C123U,≤ -4.2
23,G25U U56C A91C U127A,≤ -4.2
24,G25U U61A,-3.25

row,Variant,polymerase ribozyme fitness (log ratio)
1,A26C,-1.49
2,A26C A28C A40G A41U G59C C75A C116U C149A,≤ -4.2
3,A26C A29C G65A C87G A97G A142G,≤ -4.2
4,A26C A29C U31C C93G A110G G124C U135G G140U,≤ -4.2
5,A26C A29G A41C A47G C57A A89U A91G C105A C108G,≤ -4.2
6,A26C A29U C36A G42A U61A G70A A73C,≤ -4.2
7,A26C A30U C38G A73G G74C G84A G88U A98U A106U C114U G136U U148A,≤ -4.2
8,A26C A37U G48A C79A G143C,≤ -4.2
9,A26C A41C C76G C85G G88A A98G,≤ -4.2
10,A26C A47C A52C G58C G71A G100C C116A,≤ -4.2
11,A26C A49U C51A A52C A73C G88C A91U,≤ -4.2
12,A26C A52C C93A C96A A121U C132U U134C U146A,≤ -4.2
13,A26C A52C U53A,≤ -4.2
14,A26C A52U A89C,-3.85
15,A26C A52U C54U G58A G71A G74C C87U C108A,≤ -4.2
16,A26C A91G A121C U139C,≤ -4.2
17,A26C A107G,≤ -4.2
18,A26C C27U,-2.8
19,A26C C32G U56G C99G C105G A120G,≤ -4.2
20,A26C C32U C85G C93G U134G,≤ -4.2
21,A26C C35U U55A C76U C87G G92U A98G,-3.11
22,A26C C36A U44G A73U G92U,≤ -4.2
23,A26C C38G G68C C76U G84U U139G,≤ -4.2
